In all, about 33,000 sequences were measured (“E-score (-0.5 to 0.5)”: median about -0.035, highest 2% from about 0.34 on). Some of the results follow.
Target: T1, Mot3 (UniProt P54785)
T1 sequence: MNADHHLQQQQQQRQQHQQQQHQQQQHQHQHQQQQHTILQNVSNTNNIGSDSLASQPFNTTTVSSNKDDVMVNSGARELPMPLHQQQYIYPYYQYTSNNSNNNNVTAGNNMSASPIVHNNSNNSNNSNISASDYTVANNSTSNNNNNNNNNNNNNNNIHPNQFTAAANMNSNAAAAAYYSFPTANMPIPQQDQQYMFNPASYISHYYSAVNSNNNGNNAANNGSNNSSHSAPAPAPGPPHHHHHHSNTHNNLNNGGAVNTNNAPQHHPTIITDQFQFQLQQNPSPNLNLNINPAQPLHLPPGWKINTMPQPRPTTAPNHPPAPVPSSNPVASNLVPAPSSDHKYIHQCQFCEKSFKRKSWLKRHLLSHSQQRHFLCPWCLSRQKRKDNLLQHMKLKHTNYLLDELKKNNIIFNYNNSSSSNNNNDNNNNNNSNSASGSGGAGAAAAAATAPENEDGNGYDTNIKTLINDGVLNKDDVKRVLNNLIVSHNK
Experiment: PBM E-score (8-mer binding enrichment) (E-score (-0.5 to 0.5)); higher = stronger / more preferred TF binding; most listed sequences are background and not binding sites
Settings: protein concentration: 200 nM; construct: GST-full length
Method in brief: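 Bound GST-tagged yeast transcription factors, applied at about 100-200 nM to double-stranded universal all-10-mer Agilent arrays, were detected with fluorescent anti-GST. Scans were normalised with masliner. A modified Wilcoxon-Mann-Whitney statistic, the E-score, was assigned to each ungapped eight-base word pooled with its reverse complement by the Universal PBM Analysis Suite.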

Row | Sequence | PBM E-score
1 | ATGATACA | 0.0801
2 | AAATACTT | 0.0748
3 | GGCGTAAC | -0.0669
4 | ACATACGC | 0.207
5 | ATAAACAG | 0.0736
6 | CGGTTATC | -0.224
7 | GGTAGATA | -0.0433
8 | TAACTAGA | 0.141
9 | AATAATGG | 0.0428
10 | CAATCACG | -0.0483
11 | TGTAAGAA | 0.279
12 | TCCGGCAA | -0.0328
13 | CGAGGTAA | -0.0165
14 | CTTAGGTA | 0.139
15 | AACGACTA | 0.0206
16 | AGAGACCA | -0.126
17 | AACCCGCT | -0.102
18 | ACTGAATA | 0.129
19 | CAAGCGCA | 0.142
20 | CTTCTGAC | -0.0331
21 | ACGAGCTG | -0.162
22 | CCATAGGC | 0.239
23 | TGCTCCAA | -0.0843
24 | ATCACAGG | 0.129
25 | ACATGAAC | 0.256

Row | Sequence | PBM E-score
26 | CCCAGTCG | -0.232
27 | AAACGTAC | 0.0979
28 | ATGCTACG | -0.0447
29 | TCTCGTAA | 0.116
30 | GTATTCAC | 0.188
31 | CCGTGCTA | 0.0935
32 | ACTCAGCC | -0.319
33 | ATACGTAG | 0.24
34 | GTTCTGCA | 0.0276
35 | AATTTCTG | 0.00309
36 | AAATTTAA | 0.0818
37 | GAGCATAA | 0.0505
38 | ATGACAAT | 0.123
39 | CTCATAAC | -0.0328
40 | ATGAATGC | 0.0302
41 | TCGCTACA | -0.0346
42 | ACCGGCGT | 0.0467
43 | TAAAGACA | 0.185
44 | CCACCAAC | -0.213
45 | CAGGCTGA | -0.219
46 | GAATGCTC | -0.255
47 | CGCCTCTC | -0.366
48 | AGTTAATA | 0.201
49 | AGACAGCT | -0.136
50 | CGAATCGC | -0.174

Row | Sequence | PBM E-score
51 | AGGGTGAT | -0.19
52 | CTCACCGC | -0.186
53 | GCACCCGC | -0.138
54 | CGCAAAAC | 0.0841
55 | ACTGCACT | -0.108
56 | ACGCCTTC | 0.236
57 | AGACCTCT | -0.223
58 | ATAGGTAA | 0.356
59 | CACGAATG | 0.0319
60 | CTTGAGAC | -0.203
61 | CATGACCG | 0.101
62 | ACTGCACA | 0.126
63 | CATCGTCG | -0.172
64 | ATGCCCAT | -0.0499
65 | CTTTGAGC | -0.0874
66 | AGTCGCCA | -0.369
67 | CTCTTAAG | -0.0429
68 | ATCCCCGG | -0.272
69 | CGAAGACC | -0.286
70 | TCCTTCCA | 0.229
71 | CATTATTC | 0.0976
72 | ATCCTGCG | 0.0225
73 | ATAGGTCG | -0.172
74 | ACACAAGG | 0.191
75 | GGGAAGAA | -0.12

Row | Sequence | PBM E-score
76 | AGCAGGAA | 0.395
77 | CCGGAACG | -0.249
78 | AAGGATCT | -0.142
79 | CGAAACTC | -0.226
80 | ATAGACTG | -0.0804
81 | ATCCGAAT | 0.0428
82 | CTGTGATA | 0.0306
83 | TCGAACCA | -0.128
84 | CGTCGTCA | -0.18
85 | AGTCAGGC | 0.217
86 | CATCTGAA | -0.223
87 | GAATCATC | 0.0123
88 | GGCGGTTA | -0.119
89 | GCTCGTAC | -0.124
90 | ACCGATTC | -0.236
91 | GCAAGAGA | 0.162
92 | AGCATTAA | -0.0841
93 | CTGTGGTC | -0.0184
94 | CTATCAGA | -0.232
95 | ACGCGCGC | 0.184
96 | AAACCCCA | 0.0314
97 | AATACATG | 0.413
98 | CGATATTC | -0.261
99 | ACCTCTAA | -0.196
100 | AGGCTGGG | -0.0602

Row | Sequence | PBM E-score
101 | ACGACCAG | 0.0678
102 | TGTATTAA | 0.306
103 | CTGCGAAC | 0.0471
104 | AAGGACAG | -0.152
105 | GTTAGGTA | 0.26
106 | ATATCGTA | 0.0251
107 | ATAGAGCC | -0.0336
108 | GCGACGGA | -0.333
109 | ACAGGAGG | -0.0434
110 | AGATATAC | 0.0941
111 | AATGGAGG | -0.16
112 | GGGGCCTA | -0.0941
113 | CTATCAAG | 0.0164
114 | GTCTTCAC | -0.184
115 | GTAGTAAA | 0.187
116 | ACAACTAC | 0.15
117 | GCACGTAA | 0.293
118 | ATCCGCAG | -0.0547
119 | CGCTATAG | -0.143
120 | GTCTTCCA | -0.174
121 | ACATAATG | 0.182
122 | ACGATAAT | 0.0572
123 | ATAATTAC | 0.258
124 | AGAAACGC | -0.00015
125 | ATGTCCGG | -0.212

Row | Sequence | PBM E-score
126 | AAAGGAGA | -0.0548
127 | ACCGGCTA | -0.0818
128 | GGAAGCGA | -0.187
129 | GCTTGACC | -0.215
130 | AAGGATAA | -0.00925
131 | CCAAGGTA | 0.132
132 | GGCAGGTA | 0.277
133 | ATATTAGA | 0.232
134 | GTGTTAAA | 0.384
135 | CCATGCCG | -0.0178
136 | AAAGACTC | -0.264
137 | CGCTCAGC | -0.284
138 | CGTCTGCA | -0.0254
139 | GAAATGTA | 0.0874
140 | CGAGTGAA | 0.0928
141 | AAAAAGTT | 0.0612
142 | GGACATCA | -0.00266
143 | AGATGTTA | 0.158
144 | TGAATTCA | 0.198
145 | GATCGTGA | -0.041
146 | CCACGTCA | -0.0638
147 | CAGATACG | -0.243
148 | AAACGCCT | 0.0664
149 | AGATATGA | -0.0367
150 | AATGTAAC | 0.218

Row | Sequence | PBM E-score
151 | CCCCGCAC | -0.167
152 | GAGGGTTA | -0.0647
153 | TAAATGTA | 0.346
154 | AGGGTCAC | -0.0692
155 | CCAATCCG | -0.272
156 | AGCAAATC | -0.0446
157 | GGAGAGGA | -0.279
158 | GACTTCCA | -0.126
159 | CATCTCAA | 0.0898
160 | GTCTGAGA | -0.0514
161 | ATCTAGAC | -0.104
162 | CTCGAAGA | -0.159
163 | TGACCGCA | -0.0417
164 | CAGAATAC | 0.115
165 | AAATCTCA | 0.00372
166 | CAACACTC | 0.129
167 | GGTGTGAC | -0.198
168 | ATTGATAC | 0.00627
169 | CACATAAA | 0.202
170 | GCCGTGTA | 0.349
171 | CGCCCATA | -0.242
172 | TAGTCAGA | -0.177
